Assay results taken from PubChem BioAssay AID624417 (National Center for Advancing Translational Sciences (NCATS), 2012).
The campaign covered roughly 410,000 compounds. About 6,400 (1.6%) were called active. The inconclusive results got no clear call from the source; some entries with a clear call stand among them for comparison. The call rests on the fitted dose curve; in most records, active means well fitted inhibition curve with a large enough effect; inconclusive means small, poorly fitted or top-dose-only effect; inactive means no such curve, though single readings can be large or run the other way. No potency is given beside an inconclusive call; the fits are too rough.

Target: Glucagon-like peptide 1 receptor (Homo sapiens) (UniProt P43220)
Assay: qHTS of GLP-1 Receptor Inverse Agonists (Inhibition Mode); further: nearly all actives have a fitted effect of over 55% in size
Conditions: HEK293 GLP-1R CRE-luciferase, luminescence, 24 h, GLP-1R form is constitutively active; series mostly up to 38.3 µM
Summary of the method: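 HEK293 cells stably co-expressing constitutively active GLP-1R and a cAMP-responsive luciferase reporter were seeded in DMEM with 10% Nu serum, given compounds after 12 h, and incubated 24 h at 37 deg C. Luminescence was then read.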
Potency means the concentration at half of the fitted maximal effect; tags describe the fitted curve by direction and shape.

Chain of UniProt P43220 (P43220 whole entry, looked up): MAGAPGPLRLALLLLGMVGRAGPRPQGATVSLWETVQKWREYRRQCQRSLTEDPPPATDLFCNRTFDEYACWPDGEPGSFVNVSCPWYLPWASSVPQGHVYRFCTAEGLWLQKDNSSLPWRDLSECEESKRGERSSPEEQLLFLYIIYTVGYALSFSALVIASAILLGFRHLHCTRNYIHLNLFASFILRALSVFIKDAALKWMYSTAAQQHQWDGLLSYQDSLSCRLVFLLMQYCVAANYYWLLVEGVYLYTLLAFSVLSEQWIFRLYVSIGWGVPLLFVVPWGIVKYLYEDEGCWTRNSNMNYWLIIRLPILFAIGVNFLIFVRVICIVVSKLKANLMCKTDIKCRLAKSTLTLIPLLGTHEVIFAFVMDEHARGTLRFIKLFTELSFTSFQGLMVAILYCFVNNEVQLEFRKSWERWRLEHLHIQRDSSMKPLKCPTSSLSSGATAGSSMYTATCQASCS

SMILES	Potency
COc1ccc(C2C3=C(CC(C)(C)CC3=O)Nc3n[nH]c(C)c32)cc1 (stereo not drawn)	inactive
CNC(=O)c1nnsc1S(=O)(=O)c1ccc(Cl)cc1	active: 4.47 µM
CN(Cc1ccccc1)C(=O)c1cc(-c2ccc(Br)cc2)on1	inconclusive [inhibitor, single point]
CN1CCN(c2ccc(NC(=O)c3ccc(Oc4ccccc4)cc3)cc2)CC1	inconclusive [inhibitor, partial curve, poor fit]
COc1ccc(/C=C/C(=O)NCCOc2ccc(C)cc2)cc1	inconclusive [inhibitor, single point]
CCN(C(=O)COC(=O)/C=C/c1nc2ccccc2s1)c1c(N)n(Cc2ccccc2)c(=O)[nH]c1=O	inconclusive [inhibitor, single point]
Cc1ccc(S(=O)(=O)N(C)c2ccc(C(=O)Nc3ccccc3C(=O)N3CCOCC3)cc2)cc1	inactive
NC(=O)CC(NC(=O)c1ccccc1)c1ccc(N2CCN(c3ccccc3)CC2)c([N+](=O)[O-])c1 (stereo not drawn)	inconclusive [inhibitor, single point]
O=C(/C=C/c1ccc(F)cc1)NC(=S)Nc1ccccc1	inactive
CCC(=O)Nc1ccc(NC(=O)c2cccc(OC)c2)nc1	inactive
COc1ccc([N+](=O)[O-])cc1NC(=O)Nc1ccccc1	inconclusive [inhibitor, single point]
Cc1[nH]c2ccccc2c1/C=C(\C#N)C(=O)NCc1ccccc1	inconclusive [inhibitor, partial curve, poor fit]
COc1ccc2nc(NC(=O)C3CCCN3S(=O)(=O)c3ccc(C)cc3)sc2c1 (stereo not drawn)	inconclusive [inhibitor, partial curve, poor fit]
COc1ccccc1/C=C/C=N/NC(=O)c1ccco1	inconclusive [inhibitor, single point]
Cc1cc(Cl)c(S(=O)(=O)Nc2ccc3c(c2)OCCO3)cc1OCC(N)=O	inconclusive [inhibitor, partial curve]
CCOC(=O)/C=C/C(=O)Nc1cc(S(=O)(=O)Nc2ccc(OC)cc2)ccc1N1CCOCC1	inconclusive [inhibitor, partial curve, poor fit]
Cc1ccc(CN2CCSc3ccc(C(=O)NCc4ccco4)cc32)cc1	inconclusive [inhibitor, partial curve, poor fit]
Cc1ccc(S(=O)(=O)N2CCCCC2)cc1NC(=O)c1ccco1	inactive
CCCCCn1c(C(C)NC(=O)CCC)nc2ccccc21 (stereo not drawn)	inconclusive [inhibitor, partial curve]
CCOc1ccc(-c2nc(CSc3nnc(N)s3)cs2)cc1OC	inactive
COC(=O)c1c(N)n(-c2cc(Cl)cc(Cl)c2)c2nc3ccccc3nc12	inactive
Cc1noc(/C=C/c2ccccc2F)c1S(=O)(=O)N1CCC(C(=O)N(C)Cc2ccco2)CC1	inconclusive [inhibitor, single point]
Cc1ccccc1CN1C(=O)c2ccccc2Sc2ccc(C(=O)NCc3cccs3)cc21	inconclusive [inhibitor, partial curve, poor fit]

SMILES	Potency
COc1ccccc1CNCCSc1nnnn1C	inactive
CC1CCCC(NC(=O)COC(=O)/C=C/c2ccco2)C1C (stereo not drawn)	inconclusive [inhibitor, single point]
O=C(Nc1cccc(-c2cn3c(n2)SCC3)c1)c1ccc2ccccc2n1	inconclusive [inhibitor, single point]
Nc1c(-c2nc(-c3ccncc3)no2)nnn1CC(=O)Nc1ccccc1	inactive
O=S(=O)(Oc1ccccc1N1CCCCC1)c1ccccc1	inconclusive [inhibitor, partial curve, poor fit]
CCOC(=O)N/N=C/c1cn(Cc2ccc(Cl)cc2)c2ccccc12	inconclusive [inhibitor, partial curve, poor fit]
Cc1cccc(NC(=O)c2ccccc2SCc2ccc(F)cc2)n1	inconclusive [inhibitor, single point]
O=C(c1cccc(Cl)c1)N1CCN(CCc2ccccn2)CC1	inactive
O=[N+]([O-])c1ccc(SCCO)nc1SCCO	inconclusive [inhibitor, full curve, poor fit]
CCN(CC)CCN(C(=O)Cn1nnc(-c2ccc(C)o2)n1)C(C(=O)NC(C)(C)C)c1cccs1 (stereo not drawn)	inconclusive [inhibitor, partial curve, poor fit]
CCOc1ccc(NC(=O)Cn2nc(-c3ccncc3)ccc2=O)cc1	inactive
O=C(NCc1nc2cccnc2n1Cc1ccc(F)cc1)c1ccccc1C(F)(F)F	inactive
Cc1ccccc1OCC(=O)Nc1cc(-c2cccc(Br)c2)nn1-c1ccccc1	inactive
Cc1ccccc1Oc1ccc2c(c1)[C@@H]1C[C@H](N(C)C(=O)Nc3cc(Cl)cc(Cl)c3)[C@H]([C@H](C)O)C(=O)N1CC2	inconclusive [inhibitor, single point]
Cc1cccc(C)c1-n1nnnc1C(c1ccnc2ccccc12)N(CCN(C)C)Cc1ccccc1 (stereo not drawn)	inconclusive [inhibitor, single point]
O=C(NCC1CCCO1)c1ccc(COc2ccc(Cl)cc2)cc1 (stereo not drawn)	inconclusive [inhibitor, single point]
COc1ccc(NC(=O)Cn2c(=O)n(CCc3ccccc3)c(=O)c3ccccc32)cc1	inactive
Cc1noc(-c2ccc(NCc3ccccc3)c([N+](=O)[O-])c2)n1	inactive
CC(C)CNC(=O)CC(=O)N/N=C/c1cccs1	inactive
CCN(CC)c1ccc(NC(=O)CNCc2ccccc2Cl)c(C)c1	inconclusive [inhibitor, partial curve, poor fit]
C[C@H](O)[C@@H]1CN2CCc3c([nH]c4ccccc34)[C@@H]2C[C@@H]1N(C)C(=O)Nc1ccc(Br)cc1	inconclusive [inhibitor, partial curve, poor fit]
Cc1ccc(CNC(=O)c2cc(-c3ccccc3)nn2Cc2cc(C)no2)cc1	inconclusive [inhibitor, single point]
CCn1c(=O)cc(SCC(=O)NCCc2cc(OC)ccc2OC)c2ccccc21	inactive

SMILES	Potency
O=C(CSc1nc2ccccc2[nH]1)c1c[nH]c2ccccc12	inactive
CCOc1ccc(NC(=O)c2c(NCc3ccc(C)o3)sc3c2CCC(C)C3)cc1 (stereo not drawn)	inconclusive [inhibitor, single point]
Cc1ccc(-c2cc(C(=O)N3CCN(C(=O)c4ccco4)CC3)[nH]n2)cc1C	inactive
CC1(C)CC(C(CCN(Cc2ccccc2)C(=O)c2ccco2)c2ccc(F)cc2)CCO1 (stereo not drawn)	active: 7.94 µM
CCN(CC)S(=O)(=O)c1cc(C(=O)OC)ccc1Cl	inconclusive [inhibitor, single point]
CCOc1ccc(C(=O)NCC(c2ccc3c(c2)OCO3)N2CCN(c3ccccc3F)CC2)cc1 (stereo not drawn)	inactive
COc1ccc(OC)c(CCNC(=O)c2c(C)nn(-c3ccc(F)cc3)c2-n2cccc2)c1	inconclusive [inhibitor, partial curve, poor fit]
CCn1ccnc1CN(C)Cc1nc(CCC(C)C)no1	inconclusive [inhibitor, partial curve, poor fit]
COc1ccc(Cn2nnc(C(=O)Nc3cc(OC)ccc3OC)c2N)cc1	inactive
NC1=NC[C@H](Cc2ccccc2)N1CCc1cc(C(F)(F)F)cc(C(F)(F)F)c1	inconclusive [inhibitor, single point]
Cc1ccc(Cn2nnc3c(=O)[nH]c(C4CCN(S(=O)(=O)c5ccc(S(=O)(=O)NC6CC6)cc5)CC4)nc32)cc1	inconclusive [inhibitor, single point]
CCN1CCCC1CNc1ccc(S(C)(=O)=O)cc1[N+](=O)[O-] (stereo not drawn)	inconclusive [inhibitor, partial curve]
C#CC(=O)N(c1ccc(OC)c(OC)c1)C(C(=O)NC1CCCC1)c1cccs1 (stereo not drawn)	inconclusive [inhibitor, partial curve, poor fit]
COc1ccc(OC)c(NC(=O)CN(C)S(=O)(=O)c2ccc3[nH]c4c(c3c2)CCCC4)c1	inconclusive [inhibitor, single point]
Cc1ncoc1C(=O)Nc1ccccc1C(N)=O	inactive
O=C(CSc1nnc(-c2cc3ccccc3cc2O)n1Cc1ccco1)c1ccc(F)cc1	inconclusive [inhibitor, partial curve, poor fit]
N#CCC(=O)N/N=C/c1cccc(Oc2ccccc2)c1	inactive
CCOc1ccc(NCc2cccn2-c2nnc(N3CCC(C(=O)NCCCN4CCCCC4)CC3)s2)cc1	inconclusive [inhibitor, partial curve, poor fit]
Cc1ccc(S(=O)(=O)N2C(=O)c3cccc4cccc2c34)cc1	inconclusive [inhibitor, partial curve, poor fit]
Cc1c(C=O)c2ccccc2n1CCOc1ccccc1F	inconclusive [inhibitor, single point]
CCCCNC(=O)CC1N=C2c3ccccc3N=C(SCC(=O)Nc3cccc(OC)c3)N2C1=O (stereo not drawn)	inactive
COc1ccc(N2C(=O)CC(Sc3n[nH]c(-c4ccccc4)n3)C2=O)cc1 (stereo not drawn)	inactive
